Our source for the enrichment values is the supplement of paper PMC12230231.

± gives the standard deviation of the averaged measurements. Restriction of a single-cycle SIVsab GFP reporter by TRIM5α v1-loop variants in CRFK cells. Human variants: read share among cells still uninfected after two challenges over input, higher = gained restriction. Rhesus variants: share among infected cells over input, higher = lost restriction. Reporter dose not given per row. No active / inactive call per row; the paper calls a change when both replicates lie above its controls (mean + 2 SD of stop or wild-type variants, or the top frameshift score). Residues outside the varied loop are taken from Swiss-Prot. The paper reads the human single-substitution scores as noise; they and the rhesus combinations repeat poorly (rank correlation 0.3 to 0.4), indel scores repeat only for the top variants, rhesus substitutions well (0.9).

This series has as its system SIVsab (simian immunodeficiency virus of sabaeus monkeys), single-cycle GFP reporter, in CRFK cells. The series is described as follows: enrichment among uninfected cells over input (fold); higher = stronger restriction. Conditions: library: human / rhesus combinations. Here is the method: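 Pools of CRFK cells expressing variants of the TRIM5α v1 loop were challenged with the single-cycle reporter, sorted by GFP and sequenced; mean of two replicates.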
As to “MASGILVNVKEEVTCPICLELLTQPLSLDCGHSFCQACLTANHKKSMLDKGESSCPVCRISYQPENIRPNRHVANIVEKLREVKLSPEGQKVDHCARHGEKLLLFCQEDGKVICWLCERSQEHRGHHTFLTEEVAREYQVKLQAALEMLRQKQQEAEELEADIREEKASWKTQIQYDKTNVLADFEQLRDILDWEESNELQNLEKEEEDILKSLTNSETEMVQQTQSLRELISDLEHRLQGSVMELLQGVDGVIKRTENVTLKKPETFPKNQRRVFRAPDLKGMLEVFRELTDVRRYWVDVTVAPNNISCAVISEDKRQVSSPKPQIIYGAPGTRFTFQSFTNFNYCTGILGSQSITSGKHYWEVDVSKKTAWILGVCAGFQPDAMCNIEKNENYQPKYGYWVIGLEEGVKCSAFQDSSFHTPSVPFIVPLSVIICPDRVGVFLDYEACTVSFFNITNHGFLIYKFSHCSFSQPVFPYLNPRKCGVPMTLCSPSS [human TRIM5α, 330-340 = GAPGTRFTFQSFT]”, the enrichment turned out to be 0.696 ± 0.14.

Turning to “MASGILVNVKEEVTCPICLELLTQPLSLDCGHSFCQACLTANHKKSMLDKGESSCPVCRISYQPENIRPNRHVANIVEKLREVKLSPEGQKVDHCARHGEKLLLFCQEDGKVICWLCERSQEHRGHHTFLTEEVAREYQVKLQAALEMLRQKQQEAEELEADIREEKASWKTQIQYDKTNVLADFEQLRDILDWEESNELQNLEKEEEDILKSLTNSETEMVQQTQSLRELISDLEHRLQGSVMELLQGVDGVIKRTENVTLKKPETFPKNQRRVFRAPDLKGMLEVFRELTDVRRYWVDVTVAPNNISCAVISEDKRQVSSPKPQIIYGAPGTRFTFQSFVNFNYCTGILGSQSITSGKHYWEVDVSKKTAWILGVCAGFQPDAMCNIEKNENYQPKYGYWVIGLEEGVKCSAFQDSSFHTPSVPFIVPLSVIICPDRVGVFLDYEACTVSFFNITNHGFLIYKFSHCSFSQPVFPYLNPRKCGVPMTLCSPSS [human TRIM5α, 330-340 = GAPGTRFTFQSFV]”, the enrichment came out at 0.131 ± 0.0087.

For “MASGILVNVKEEVTCPICLELLTQPLSLDCGHSFCQACLTANHKKSMLDKGESSCPVCRISYQPENIRPNRHVANIVEKLREVKLSPEGQKVDHCARHGEKLLLFCQEDGKVICWLCERSQEHRGHHTFLTEEVAREYQVKLQAALEMLRQKQQEAEELEADIREEKASWKTQIQYDKTNVLADFEQLRDILDWEESNELQNLEKEEEDILKSLTNSETEMVQQTQSLRELISDLEHRLQGSVMELLQGVDGVIKRTENVTLKKPETFPKNQRRVFRAPDLKGMLEVFRELTDVRRYWVDVTVAPNNISCAVISEDKRQVSSPKPQIIYGAPGTRFTFQSLTNFNYCTGILGSQSITSGKHYWEVDVSKKTAWILGVCAGFQPDAMCNIEKNENYQPKYGYWVIGLEEGVKCSAFQDSSFHTPSVPFIVPLSVIICPDRVGVFLDYEACTVSFFNITNHGFLIYKFSHCSFSQPVFPYLNPRKCGVPMTLCSPSS [human TRIM5α, 330-340 = GAPGTRFTFQSLT]”, the enrichment came to 0.527 ± 0.3.

For “MASGILVNVKEEVTCPICLELLTQPLSLDCGHSFCQACLTANHKKSMLDKGESSCPVCRISYQPENIRPNRHVANIVEKLREVKLSPEGQKVDHCARHGEKLLLFCQEDGKVICWLCERSQEHRGHHTFLTEEVAREYQVKLQAALEMLRQKQQEAEELEADIREEKASWKTQIQYDKTNVLADFEQLRDILDWEESNELQNLEKEEEDILKSLTNSETEMVQQTQSLRELISDLEHRLQGSVMELLQGVDGVIKRTENVTLKKPETFPKNQRRVFRAPDLKGMLEVFRELTDVRRYWVDVTVAPNNISCAVISEDKRQVSSPKPQIIYGAPGTRFTFQSLVNFNYCTGILGSQSITSGKHYWEVDVSKKTAWILGVCAGFQPDAMCNIEKNENYQPKYGYWVIGLEEGVKCSAFQDSSFHTPSVPFIVPLSVIICPDRVGVFLDYEACTVSFFNITNHGFLIYKFSHCSFSQPVFPYLNPRKCGVPMTLCSPSS [human TRIM5α, 330-340 = GAPGTRFTFQSLV]”, the enrichment was 0.106 ± 0.024.

Take “MASGILVNVKEEVTCPICLELLTQPLSLDCGHSFCQACLTANHKKSMLDKGESSCPVCRISYQPENIRPNRHVANIVEKLREVKLSPEGQKVDHCARHGEKLLLFCQEDGKVICWLCERSQEHRGHHTFLTEEVAREYQVKLQAALEMLRQKQQEAEELEADIREEKASWKTQIQYDKTNVLADFEQLRDILDWEESNELQNLEKEEEDILKSLTNSETEMVQQTQSLRELISDLEHRLQGSVMELLQGVDGVIKRTENVTLKKPETFPKNQRRVFRAPDLKGMLEVFRELTDVRRYWVDVTVAPNNISCAVISEDKRQVSSPKPQIIYGAPGTRFTFQTFTNFNYCTGILGSQSITSGKHYWEVDVSKKTAWILGVCAGFQPDAMCNIEKNENYQPKYGYWVIGLEEGVKCSAFQDSSFHTPSVPFIVPLSVIICPDRVGVFLDYEACTVSFFNITNHGFLIYKFSHCSFSQPVFPYLNPRKCGVPMTLCSPSS [human TRIM5α, 330-340 = GAPGTRFTFQTFT]”: the enrichment was 0.159 ± 0.042.

With “MASGILVNVKEEVTCPICLELLTQPLSLDCGHSFCQACLTANHKKSMLDKGESSCPVCRISYQPENIRPNRHVANIVEKLREVKLSPEGQKVDHCARHGEKLLLFCQEDGKVICWLCERSQEHRGHHTFLTEEVAREYQVKLQAALEMLRQKQQEAEELEADIREEKASWKTQIQYDKTNVLADFEQLRDILDWEESNELQNLEKEEEDILKSLTNSETEMVQQTQSLRELISDLEHRLQGSVMELLQGVDGVIKRTENVTLKKPETFPKNQRRVFRAPDLKGMLEVFRELTDVRRYWVDVTVAPNNISCAVISEDKRQVSSPKPQIIYGAPGTRFTFQTFVNFNYCTGILGSQSITSGKHYWEVDVSKKTAWILGVCAGFQPDAMCNIEKNENYQPKYGYWVIGLEEGVKCSAFQDSSFHTPSVPFIVPLSVIICPDRVGVFLDYEACTVSFFNITNHGFLIYKFSHCSFSQPVFPYLNPRKCGVPMTLCSPSS [human TRIM5α, 330-340 = GAPGTRFTFQTFV]”, the enrichment worked out at 0.178 ± 0.091.

Turning to “MASGILVNVKEEVTCPICLELLTQPLSLDCGHSFCQACLTANHKKSMLDKGESSCPVCRISYQPENIRPNRHVANIVEKLREVKLSPEGQKVDHCARHGEKLLLFCQEDGKVICWLCERSQEHRGHHTFLTEEVAREYQVKLQAALEMLRQKQQEAEELEADIREEKASWKTQIQYDKTNVLADFEQLRDILDWEESNELQNLEKEEEDILKSLTNSETEMVQQTQSLRELISDLEHRLQGSVMELLQGVDGVIKRTENVTLKKPETFPKNQRRVFRAPDLKGMLEVFRELTDVRRYWVDVTVAPNNISCAVISEDKRQVSSPKPQIIYGAPGTRFTFQTLTNFNYCTGILGSQSITSGKHYWEVDVSKKTAWILGVCAGFQPDAMCNIEKNENYQPKYGYWVIGLEEGVKCSAFQDSSFHTPSVPFIVPLSVIICPDRVGVFLDYEACTVSFFNITNHGFLIYKFSHCSFSQPVFPYLNPRKCGVPMTLCSPSS [human TRIM5α, 330-340 = GAPGTRFTFQTLT]”, the enrichment was 0.268 ± 0.15.

As to “MASGILVNVKEEVTCPICLELLTQPLSLDCGHSFCQACLTANHKKSMLDKGESSCPVCRISYQPENIRPNRHVANIVEKLREVKLSPEGQKVDHCARHGEKLLLFCQEDGKVICWLCERSQEHRGHHTFLTEEVAREYQVKLQAALEMLRQKQQEAEELEADIREEKASWKTQIQYDKTNVLADFEQLRDILDWEESNELQNLEKEEEDILKSLTNSETEMVQQTQSLRELISDLEHRLQGSVMELLQGVDGVIKRTENVTLKKPETFPKNQRRVFRAPDLKGMLEVFRELTDVRRYWVDVTVAPNNISCAVISEDKRQVSSPKPQIIYGAPGTRFTFQTLVNFNYCTGILGSQSITSGKHYWEVDVSKKTAWILGVCAGFQPDAMCNIEKNENYQPKYGYWVIGLEEGVKCSAFQDSSFHTPSVPFIVPLSVIICPDRVGVFLDYEACTVSFFNITNHGFLIYKFSHCSFSQPVFPYLNPRKCGVPMTLCSPSS [human TRIM5α, 330-340 = GAPGTRFTFQTLV]”, the enrichment turned out to be 0.231 ± 0.045.
